Test results taken from the BET-seq Pho4 binding data (Le et al. 2018).
This is one part of the list. The energies were worked out here from pooled read counts, against the library average; single values are noisy.

Each sequence was assayed against T1, Pho4 (S. cerevisiae) (UniProt P07270) (assay: relative binding free energy (BET-seq); higher = weaker binding). Details: reference: library average.
T1 sequence: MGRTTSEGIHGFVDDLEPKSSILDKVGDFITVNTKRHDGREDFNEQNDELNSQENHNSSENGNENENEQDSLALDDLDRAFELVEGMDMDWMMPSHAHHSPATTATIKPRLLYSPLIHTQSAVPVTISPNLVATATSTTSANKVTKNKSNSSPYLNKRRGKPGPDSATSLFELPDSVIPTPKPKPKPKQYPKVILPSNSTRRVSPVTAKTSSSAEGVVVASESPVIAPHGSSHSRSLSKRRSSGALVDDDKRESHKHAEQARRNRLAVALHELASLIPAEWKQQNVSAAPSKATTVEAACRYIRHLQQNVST

Sequence	relative binding free energy [kcal/mol]
TCTGTCACGTGCGGAT	0.06
CGAGGCACGTGGGTCG	-0.4
AGAGTCACGTGAATTT	0.24
TAGTACACGTGTGCTT	-0.01
GTGTGCACGTGTGATG	0.14
AATATCACGTGATCGT	0.26
TGATACACGTGAAGGG	0.4
GGTAACACGTGGCGCG	0
TATGTCACGTGTTGTT	0.12
GTTCACACGTGGAGAG	0.25
AATGTCACGTGGCGTG	0.01
TATTCCACGTGAGGTT	0.25
AGGGGCACGTGTAATG	-0.09
GAGAGCACGTGTAGGG	-0.18
GAATTCACGTGTTTGT	0.38
GATGTCACGTGTATCT	0.23
ACTTTCACGTGGATGG	0.27
TGGTTCACGTGGTCCA	0.23
AGGTACACGTGGAGGC	0.03
TTTCTCACGTGCAGGT	0.27
TTTGTCACGTGTAGAG	0.1
GTTTACACGTGAATGG	0.35
GTTGACACGTGGTTTC	0.12
AGCAGCACGTGTTGTG	-0.1
CGTTGCACGTGGGATA	-0.02

Sequence	relative binding free energy [kcal/mol]
TCGGGCACGTGATAAT	0.13
AATGTCACGTGATAGA	0.21
GTAATCACGTGAAGGA	0.37
TCTTACACGTGGTGAT	0.17
AGGTCCACGTGTTGAG	0.19
CAGTTCACGTGTCGTG	0.48
GGGGGCACGTGAGCGG	0.1
TGAAGCACGTGACGGT	0.04
AGCGTCACGTGATTGG	0.13
ACTTGCACGTGAGTGT	0.12
GTATTCACGTGTTTCA	0.24
TATTTCACGTGATTAT	0.37
TTTCCCACGTGTGGGT	-0.06
TAGTACACGTGCATGT	0.15
AGGGACACGTGGGGAT	-0.07
AAGGTCACGTGAAAGT	0.35
ATCGTCACGTGTGCTG	0.03
CGTGCCACGTGGGAGT	-0.04
CGGAGCACGTGTTTTG	-0.08
GGAATCACGTGGGAGT	0.04
ATATACACGTGGTTAT	-0.05
CTTGGCACGTGTGCGG	-0.02
TTTGGCACGTGAAATG	0.25
TATCTCACGTGTGATT	0.15
ACAGGCACGTGGGTTA	-0.3

Sequence	relative binding free energy [kcal/mol]
GTTGTCACGTGCTTTT	0.14
TGTAGCACGTGTATGA	-0.03
AGGTTCACGTGGATGC	0.26
TTCGACACGTGCGTTG	0.03
TATGACACGTGTTGAT	0
AATCACACGTGGGGGG	-0.03
GTTGACACGTGTAATT	0.25
GGGTACACGTGTTTAA	0.15
TGACTCACGTGGGCGG	0.15
GGGAGCACGTGAGAAT	0.27
GTCAGCACGTGGTATT	-0.08
TAAAGCACGTGTGATT	-0.03
TTTGGCACGTGCCGGG	-0.18
GTGTACACGTGTCGGT	0.07
TCATGCACGTGGGTCG	-0.12
TTCAGCACGTGGATAT	-0.09
AGGTTCACGTGTAGTC	0.29
GTGGACACGTGGGGAT	-0.03
AATTTCACGTGAAGTT	0.22
TTACTCACGTGGTATT	0.1
GGTTGCACGTGATAGC	0.1
ATGGTCACGTGTTAAG	0.14
AGGGTCACGTGCGTTA	0.21
CAGGTCACGTGTGTTA	0.19
TTAAACACGTGAGGGT	0.31

Sequence	relative binding free energy [kcal/mol]
ATGGCCACGTGTGTGC	-0.13
TTCTACACGTGTGGTG	0.05
GTAAGCACGTGATTGG	0.06
CTGGGCACGTGAGGGT	0.12
AACTGCACGTGAGTTA	0.24
TATTTCACGTGTAAGC	0.3
ATAGGCACGTGTCGAG	-0.09
TAGAACACGTGGTTGA	0.02
TATGGCACGTGGTATA	-0.29
TAATTCACGTGGAGCT	0.16
TACGGCACGTGCTGGG	-0.11
GTAAGCACGTGGATTT	-0.01
GGCGGCACGTGTTTAG	0.03
TTTTTCACGTGGATCT	0.4
TTTCGCACGTGACGGT	0.09
TCTGGCACGTGTCGAG	0
GGGGACACGTGTGATA	0.27
ATTTGCACGTGGCGTA	-0.15
GTAGTCACGTGTTGCC	0.17
TATTACACGTGAGGTC	0.14
TTGTCCACGTGGTTTG	-0.01
GTGGTCACGTGTTATG	0.22
CGTGGCACGTGAACGG	0.13
GCATTCACGTGCGGGT	0.23
TTGTGCACGTGACAAG	-0.03

Sequence	relative binding free energy [kcal/mol]
GCCGGCACGTGGGTTT	0
AAAGACACGTGGGTTT	0.01
TGGGCCACGTGTGCGA	-0.17
GGATCCACGTGGATTT	0.22
TTACTCACGTGCGGGT	0.16
GGAATCACGTGAGTAG	0.26
GCGGTCACGTGAGGGT	0.34
GAGTTCACGTGAGTAT	0.27
CTACTCACGTGTGGGT	0.24
GTTAACACGTGTTATG	-0.02
ATCATCACGTGGGTGT	0
AAGTGCACGTGGATAG	-0.06
ACATTCACGTGGGGGA	0.1
CATGTCACGTGGGAGC	0.18
CGTTGCACGTGTATTT	0.04
TATTGCACGTGTGGTA	0.01
GGTCTCACGTGGGTAT	0.04
TTCTGCACGTGTTGGC	-0.02
GGGTGCACGTGCAGAG	-0.03
GGGGTCACGTGCATGA	0.1
GGGGCCACGTGGCGGG	-0.16
GTGTTCACGTGGGGGC	0.2
AATGACACGTGATATG	0.09
GAGTTCACGTGTAAGT	0.23
AGGGACACGTGTTATT	-0.12

Sequence	relative binding free energy [kcal/mol]
TGGTTCACGTGATACG	0.35
TGTGGCACGTGGAGAC	-0.01
TTAGTCACGTGGTGTT	0.01
GTTACCACGTGTGTGT	-0.01
ATTTACACGTGAGAGT	0.35
CTGAGCACGTGTTGTT	-0.13
AGCAGCACGTGATTGT	0.18
TATAGCACGTGAGTGC	0.19
TGTCACACGTGTATGT	0.11
ATTTGCACGTGATTGC	0.16
CTTTTCACGTGGACGT	0.24
GTCATCACGTGGGTTG	0.06
TATAGCACGTGGTTCG	-0.17
AGGTTCACGTGGTGTC	0.27
GGTATCACGTGCAGTA	0.14
GGGGCCACGTGAGGAG	0.09
ATTTACACGTGATTTT	0.31
TTTGGCACGTGGCCGG	-0.19
GTAGACACGTGTGCGT	0
GTAAGCACGTGGAGTT	-0.08
TAATTCACGTGTGGTG	0.23
